Laboratory results reported in paper PMC4336329 (PLoS ONE, 2015).
The whole screen tested about 310,000 compounds, of which about 2,200 (0.71%) showed an effect of 50% or more. The effect is printed as a negative number. Some of the results follow.

molecular target: human ether-à-go-go-related gene (hERG) potassium channel (human, UniProt Q12809); assay: primary screen, population patch clamp on CHO cells stably expressing hERG
Sequence (Q12809 whole entry, looked up): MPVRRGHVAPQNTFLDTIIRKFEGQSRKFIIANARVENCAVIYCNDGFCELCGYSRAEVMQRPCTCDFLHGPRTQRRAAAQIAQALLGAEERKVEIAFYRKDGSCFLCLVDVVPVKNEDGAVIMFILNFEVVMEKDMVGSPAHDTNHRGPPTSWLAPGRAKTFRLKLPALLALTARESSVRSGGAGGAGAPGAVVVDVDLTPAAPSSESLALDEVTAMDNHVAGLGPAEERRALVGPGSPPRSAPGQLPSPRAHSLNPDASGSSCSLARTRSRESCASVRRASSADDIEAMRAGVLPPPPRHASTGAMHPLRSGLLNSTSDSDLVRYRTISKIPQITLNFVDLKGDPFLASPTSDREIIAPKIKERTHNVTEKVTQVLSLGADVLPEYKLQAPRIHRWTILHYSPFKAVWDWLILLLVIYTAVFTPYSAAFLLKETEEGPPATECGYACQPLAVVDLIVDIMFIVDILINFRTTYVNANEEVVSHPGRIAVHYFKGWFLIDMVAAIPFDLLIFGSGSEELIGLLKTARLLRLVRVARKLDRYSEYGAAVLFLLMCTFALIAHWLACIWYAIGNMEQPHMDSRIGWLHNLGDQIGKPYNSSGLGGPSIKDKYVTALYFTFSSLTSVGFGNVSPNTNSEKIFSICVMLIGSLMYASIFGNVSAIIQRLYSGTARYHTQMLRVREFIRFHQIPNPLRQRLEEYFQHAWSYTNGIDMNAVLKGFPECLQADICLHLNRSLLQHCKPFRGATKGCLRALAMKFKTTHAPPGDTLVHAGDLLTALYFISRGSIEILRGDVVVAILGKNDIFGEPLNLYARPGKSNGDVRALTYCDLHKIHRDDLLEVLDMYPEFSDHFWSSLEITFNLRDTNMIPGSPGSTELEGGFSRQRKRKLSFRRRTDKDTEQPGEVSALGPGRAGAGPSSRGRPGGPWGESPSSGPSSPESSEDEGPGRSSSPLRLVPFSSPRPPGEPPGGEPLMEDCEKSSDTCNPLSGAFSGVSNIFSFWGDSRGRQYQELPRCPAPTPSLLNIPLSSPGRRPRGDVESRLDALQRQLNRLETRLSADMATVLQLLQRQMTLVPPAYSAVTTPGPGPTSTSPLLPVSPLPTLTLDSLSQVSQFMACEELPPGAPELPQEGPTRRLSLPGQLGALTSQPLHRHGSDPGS

Row | Compound | hERG current change (%, negative = inhibition) at 1uM
1 | Cc1cc(NC(=O)CSc2nnc(-c3c[nH]c4ccccc34)n2-c2ccc(Cl)cc2)no1 | 9.73%
2 | CC1Cc2ccccc2N1C(=O)CSc1nnc2c(n1)[nH]c1ccccc12 (stereo not shown) | 6.77%
3 | Cc1ccc2c(c1)[C@@H]1CN(C)CC[C@@H]1N2S(=O)(=O)c1ccc(F)cc1.Cl | -3.75%
4 | C=Cn1ccnc1P(=S)(c1c(C)nn(-c2ccccc2)c1C)c1nccn1C=C | 4.06%
5 | CN(CC(=O)Nc1ccccc1Cl)C(=O)COC(=O)c1cc([N+](=O)[O-])ccc1N1CCOCC1 | -2.37%
6 | COc1ccc(N2CCN(c3ccc(NC(=O)C4CCCCC4)cc3C#N)CC2)cc1 | 19.7%
7 | CCn1c(SCC(=O)c2ccc(C)cc2)nnc1-c1ccncc1 | 14.1%
8 | Nc1c(C(=O)CSc2nccn2-c2cccc(F)c2)c(=O)[nH]c(=O)n1C1CC1 | 14.2%
9 | O=C(COC(=O)CNC(=O)c1ccccc1)NC1CCCCC1 | 0.397%
10 | CCCOc1cccc(C(=O)N2CCN(C(=O)C3CCCO3)CC2)c1 (stereo not shown) | 12.2%
11 | Cc1ccc(NC(=O)c2ccc(S(=O)(=O)NCc3ccco3)cc2)cc1 | 8.89%
12 | CCC1CCCCN1C(=O)CCn1ccnc1 (stereo not shown) | 22.9%
13 | O=C(O)C(Cc1ccccc1)N1C(=O)/C(=C/c2cccc3ccccc23)SC1=S (stereo not shown) | 7.97%
14 | Cc1ccc(-n2nc(C(=O)NCc3ccco3)c3c4ccccc4n(C)c3c2=O)cc1 | 9.53%
15 | O/C(=C\Sc1nnc(Cc2ccccc2)o1)c1ccc(F)cc1 | 2.71%
16 | N#Cc1c(N)nc(SCC(=O)OCc2ccccc2)c(C#N)c1-c1ccco1 | 8.52%
17 | COc1ccc(C2CC(c3ccccc3)=NN2C(=O)COC(=O)COc2ccccc2)cc1 (stereo not shown) | 8.82%
18 | O=C(CSc1nnnn1-c1ccc2c(c1)CCC2)Nc1ccc2c(c1)OCCO2 | 9.44%
19 | CC(Nc1ccc(N2CCOCC2)cc1)C(=O)N1c2ccccc2CC1C (stereo not shown) | 7.12%
20 | Cc1cc(NC(=O)c2c(F)cccc2Cl)n(-c2nc3ccccc3[nH]2)n1 | 4.94%
21 | Cc1cc(NS(=O)(=O)c2ccc(NC(=O)c3cc4ccccc4o3)cc2)nc(C)n1 | 2.74%
22 | CC(C)NC(=O)c1ccccc1-c1nc(-c2ccccc2Cl)no1 | 7.21%

Row | Compound | hERG current change (%, negative = inhibition) at 1uM
23 | O=C(NC(Cc1c[nH]c2ccccc12)C(=O)Nc1ccc(OC(F)(F)F)cc1)c1cccs1 (stereo not shown) | 4.94%
24 | CC1(C)OC(=O)C(=Cc2ccc(-c3ccc(S(N)(=O)=O)cc3)o2)C(=O)O1 | 12.6%
25 | Cc1nc2cccc(C(=O)NC3CCCCC3)c2o1 | 15.4%
26 | O=C(N/N=C/c1cccnc1)c1cccc(NC(=O)c2ccccc2Cl)c1 | 16.4%
27 | CCOC(=O)c1sc(NC(=O)CN2C(=O)NC3(CC(C)CC(C)(C)C3)C2=O)cc1C (stereo not shown) | -2.34%
28 | Cc1cc(C)n(CCNC(=O)CC2C(=O)NCCN2Cc2ccc(C)o2)n1 (stereo not shown) | 6.27%
29 | Cc1ccc(C)c(N(CC(=O)NCc2ccco2)C(=O)CNS(=O)(=O)c2ccccc2)c1 | 12.3%
30 | CCOc1ccc2c(c1)[nH]c(=S)n2C | 8.73%
31 | O=C(NCc1ccco1)C(=O)NCC1OCCN1S(=O)(=O)c1ccc(F)cc1 (stereo not shown) | 3.16%
32 | NC(=O)c1cc(N2C(=O)C3CC=CCC3C2=O)ccc1N1CCCCC1 (stereo not shown) | -1.74%
33 | O=C(c1ccc(N2CCCC2=O)cc1)N1CCOCC1 | 14.2%
34 | CC(C)OC(=O)NC(C)(C)COC(=O)Nc1cccc(Cl)c1 | -3.54%
35 | CS(=O)(=O)Oc1ccccc1/C=C1/N=C(c2ccc(F)cc2)OC1=O | 12%
36 | CCC(=O)Nc1ccc(-c2nc(-c3ccccc3)n(CC(=O)N3CCCCC3)n2)cc1 | 8.01%
37 | CC(C)c1nc2sc3ccccc3c(=O)c2c(=O)n1Cc1ccccc1 | 6.97%
38 | O=C(NCc1cccnc1)Nc1cccc(F)c1 | 8.66%
39 | C=CCn1c(C(C)NC(=O)CCC)nc2ccccc21 (stereo not shown) | 5.97%
40 | Cc1cc(C)cc(NC(=O)CSc2nc3nc(C)cc(C)n3n2)c1 | -16.9%
41 | CC1CC(CC(=O)NNc2nc(-c3ccccc3)cs2)C(=O)O1 (stereo not shown) | 18.9%
42 | O=C(O)c1ccc(NC(=O)c2ccc3c(c2)C(=O)N(c2ccccc2)C3=O)cc1 | 4.69%
43 | O=c1cc(-c2ccccc2)nc(N2CCN(Cc3ccccc3)CC2)[nH]1 | 12.8%
44 | O=C(NNS(=O)(=O)c1ccc([N+](=O)[O-])cc1)C(=O)Nc1cccc(C(=O)O)c1 | 13.6%

Row | Compound | hERG current change (%, negative = inhibition) at 1uM
45 | S=C(NCc1ccco1)Nc1ccc2c(c1)OCCO2 | 9.54%
46 | COc1ccc(C(c2c[nH]c3ccccc23)c2c[nH]c3ccccc23)cc1O | 13.4%
47 | O=C(O)CN1C(=O)/C(=C/C=C/c2ccccc2)SC1=S | 6.75%
48 | O=C(Nn1cnnc1)c1cc(Cl)cc(Cl)c1 | 14.7%
49 | O=C(O)c1ccccc1C(=O)Nc1nc(-c2ccc3ccccc3c2)cs1 | 18.4%
50 | CCOc1ccc(N2CC(O)(c3ccc(F)cc3)[N+]3=C2CCCC3)cc1.[Br-] (stereo not shown) | -13.2%
51 | COc1ccc2oc(C(=O)NCc3ccco3)c(C)c2c1 | 12.3%
52 | COc1ncccc1-c1nnn(-c2ccccc2Br)n1 | -2.77%
53 | CCN1CCN(Cc2nc(N)nc(Nc3ccc(C)c(C)c3)n2)CC1 | -14.8%
54 | NC(=O)NOCc1ncc(C(F)(F)F)cc1Cl | 10.1%
55 | O=C(CSc1ccc(-c2ccco2)nn1)Nc1ccccc1F | 10.5%
56 | O=C(NCCCN1CCOCC1)c1ccc2c(=O)n(CCc3ccccc3)c(=O)[nH]c2c1 | 6.51%
57 | COc1cccc(NC(=O)CN(C)C(=O)c2csc3c2CCCC3)c1 | 7.5%
58 | O=C(NCCc1ccc(Cl)cc1Cl)c1cccnc1 | 12.2%
59 | O=C(COC(=O)CNC(=O)c1cccc(OC(F)F)c1)NNC(=O)c1ccccc1 | 10.1%
60 | O=C(CSC1=NC2(CCCCC2)N=C1c1ccccc1)Nc1ccc2c(c1)OCCO2 | -4.48%
61 | Cc1cccc(C(=O)NCC(=O)N2CCCC2)c1 | 13%
62 | CCn1ncc(S(=O)(=O)N2CCN(c3cccc(OC)c3)CC2)c1C | 15.4%
63 | O=C(NC1(C(F)(F)F)OCCO1)c1ccc(F)cc1 | 11.5%
64 | CCN(C(=O)COC(=O)C(Cc1ccccc1)N1C(=O)c2ccccc2C1=O)C1CCS(=O)(=O)C1 (stereo not shown) | -9.49%
65 | CC1CCc2c(sc(NC(=O)COC(=O)C3CCCO3)c2C#N)C1 (stereo not shown) | 4.76%
66 | O=C(N/N=C\c1c(O)ccc2ccccc12)c1ccc(O)cc1 | 10.7%

Row | Compound | hERG current change (%, negative = inhibition) at 1uM
67 | O=C(CS(=O)(=O)Cc1ccccc1)Nc1cccnc1 | 14.3%
68 | Cc1c(N2C(=O)CS/C2=N\N=C\c2ccc(Br)cc2)c(=O)n(-c2ccccc2)n1C | -6.67%
69 | O=Cc1ccc(Oc2ncccn2)cc1 | 10.4%
70 | Cc1cccc(OCC(=O)NCCNC(=O)c2ccncc2)c1 | 24.1%
71 | CC(=O)Nc1ccc(S(=O)(=O)N2CCN(CCCOc3ccccc3Cl)CC2)cc1 | 1.67%
72 | CCOC(=O)CSc1nc(C2CC2)cc(-c2ccc(Cl)cc2)c1C#N | -6.78%
73 | O=C(CSc1nnc(CNC(=O)c2ccco2)o1)Nc1ccccc1 | 13.8%
74 | COCC(=O)Nc1cc(OC)ccc1OC | 12.6%
75 | O=C(OCc1nc2ccccc2s1)c1ccccc1O | 10.4%
76 | CC(=O)c1c(C(C)=O)c(C)n(-c2cccc([N+](=O)[O-])c2)c1C | 6.15%
77 | CSCCn1c(C(C)(C)C)cc(C(=O)O)c1C | 16.7%
78 | CCn1c(SCC(=O)Nc2cccc(OC)c2)nc2ccccc2c1=O | -8.15%
79 | O=C(O)CCC(=O)NNC(=O)c1cccc(Br)c1 | -1.11%
80 | OCC(O)C1OC(Nc2ccc(Br)cc2)C(O)C1O (stereo not shown) | 12%
81 | Cc1cc(C)n(CCC(=O)N/N=C/c2ccc(O)cc2O)n1 | 11.4%
82 | Cc1cccc(NC(=O)c2cc3c(=O)n4ccccc4nc3n(CC(C)C)c2=N)c1 | -52.2%
83 | COC(=O)C(C)NC(=S)N1CCN(c2c(F)cc3c(=O)c(C(=O)O)cn(C4CC4)c3c2OC)CC1C (stereo not shown) | 6.29%
84 | Cc1ccc2c(c1)N(C(=O)CCC(=O)N1CCC(C(N)=O)CC1)CCO2 | -1.98%
85 | CCC(C)NC(=O)c1ccc(NC(=O)CC2SC(N3CCCC3)=NC2=O)cc1 (stereo not shown) | 15.3%
86 | Cc1ccc(-c2onc3ccc(C4OCCO4)cc23)cc1 | 10.2%
87 | COCCCn1c(SCC(=O)N2CC(=O)Nc3ccccc32)nnc1-c1ccoc1C | 12.9%
88 | O=C(Nc1ccc(Cl)cc1F)c1ccc(COc2c(F)c(F)c(F)c(F)c2F)o1 | 7.18%
